The text below walks through data of ChEMBL document CHEMBL4888484, “Replenishing the malaria drug discovery pipeline: Screening and hit evaluation of the MMV Hit Generation Library 1 (HGL1) against asexual blood stage Plasmodium falciparum ,using a nano luciferase reporter read-out” (2022).

A word on the % Inhibition: it is the change of the read-out against control, counted positive when it falls.

Hit rate of the full screen: of about 150,000 compounds, about 540 (0.36%) showed an effect of 50% or more. The list shows a part of the results.

The subject of this test is Plasmodium falciparum. Description: Primary screen in NF54 nanoGlo assay, in single point, at 2uM, 72h; a lower Z score goes with more inhibition. In kind it is functional, Erythrocyte. To be noted: timepoint 72 hour.
For the molecule `CC(=O)N[C@H]1C[C@H](c2nnc(CN(C)Cc3csc(C(C)C)n3)n2C)C1`, the “% Inhibition” value is recorded as -6% and the Z score is 1.06.

With `CC1CCN(C[C@]2(O)CCCN(Cc3ccc(F)c(F)c3)C2=O)CC1`, the “% Inhibition” value is given as -8% and the Z score was determined as 1.6.

As to `CN(C)CCN1C(=O)c2cc3occc3n2C[C@@]1(C)C(=O)NC1CCCCC1`, the “% Inhibition” value is on record as -1% and the Z score is 0.19.

On to `Cc1c(F)cccc1NCc1ncccn1`, for which the “% Inhibition” value was -11% and the Z score amounted to 1.1.

Take `CCc1[nH]nc(-c2ccc3c(c2)OCO3)c1NC(=O)Nc1ccc(Cl)cc1`: the “% Inhibition” value was -13% and the Z score was found to be 1.63.

Consider `O=C(Nc1cc(-c2nc[nH]n2)ccc1F)[C@H]1CCS(=O)(=O)C1`, for which the “% Inhibition” value was -6% and the Z score came out at 0.99.

`CCOc1ccccc1[C@H](CC)NC(=O)N1CCCCO1`: the “% Inhibition” value is listed as -10% and the Z score is 0.93.

For `CCc1ccsc1C(=O)N1CCCC1C1CCCN1C` (stereo unspecified), the “% Inhibition” value was -2% and the Z score stood at 0.29.

On to `CC1=C[C@@H](CNCCN2CCOCC2)[C@H](C(C)C)C[C@H]1Cc1nnc(C(C)(C)C)o1`, for which the “% Inhibition” value is -11% and the Z score stood at 1.68.

For `CN1CCC(NC(=O)C(=O)c2ccc(C(C)(C)C)cc2)CC1`, the “% Inhibition” value is recorded as -11% and the Z score is recorded as 1.34.

For `COCCN1CCN2C(=O)[C@H](C)N(C(=O)c3cc(C4CC4)[nH]n3)C[C@H]2C1=O`, the “% Inhibition” value was -18% and the Z score was found to be 1.6.

Turning to `CCCN1CCN(C(=O)c2ccc(C(=O)O)nc2)c2ccc(F)cc21`, the “% Inhibition” value is -2% and the Z score turned out to be 0.24.

`Cc1nnc(CN(C)Cc2cccc(C#N)c2)n1C`: the “% Inhibition” value was 4% and the Z score is -0.51.

Regarding `O=C(c1ccccc1)N1CCN(C(=O)c2ccc3ccccc3n2)CC1`, the “% Inhibition” value is reported as 4% and the Z score is reported as -0.73.

Turning to `Cc1n[nH]c(C)c1CCN(C)[C@@H](/C=C/C(C)(C)C)C(=O)O`, the “% Inhibition” value is reported as -10% and the Z score worked out at 1.13.

For the molecule `Cc1ccc(Cc2c(C)nc(C)nc2N2CCN(C[C@H](O)COC(C)(C)C)CC2)cc1`, the “% Inhibition” value stood at 1% and the Z score is -0.07.

Regarding `CN(C(=O)Cn1c2ccccc2n2c(=O)cc(-c3ccc(F)cc3)nc12)c1ccccc1`, the “% Inhibition” value is given as -7% and the Z score was found to be 0.85.

As to `Cn1nncc1NC(=O)NCc1cnn(CCF)c1`, the “% Inhibition” value is on record as -2% and the Z score worked out at 0.32.

As to `O=C(NCc1ccc(N2CCCCC2)nc1)C1CCCCC1`, the “% Inhibition” value is listed as -5% and the Z score was found to be 0.84.

With `NC(=O)C1CCCC1NC(=O)CC(O)c1ccc(Cl)cc1` (stereo unspecified), the “% Inhibition” value was found to be 9% and the Z score was -1.18.

`C[C@@H]1OC2(CCN(Cc3c[nH]nc3-c3ccc(C(F)(F)F)cc3)CC2)NC1=O`: the “% Inhibition” value is -15% and the Z score was found to be 3.07.

For the molecule `C#CCCC1(CCC(=O)N2CC3CCCC3C2C(N)=O)N=N1` (stereo unspecified), the “% Inhibition” value is listed as -6% and the Z score was 0.73.

Regarding `O=C(NCc1ccccn1)c1c[nH]c(=O)n(Cc2ccc3c(c2)OCO3)c1=O`, the “% Inhibition” value is listed as -22% and the Z score was 3.82.
